Assay results taken from PubChem BioAssay AID504832 (National Center for Advancing Translational Sciences (NCATS), 2011).
“And” between values parts separate entries of the source, which are not always exact repeats. Equal entries are not always repeated. Screen size: about 310,000 compounds; about 18,000 (5.8%) were called active. Inconclusive results, whose numbers are uncertain, are shown with a selection of clear calls. Calls come from the whole dose curve; as a rule, active = well fitted inhibition curve with a large enough effect; inconclusive = small, poorly fitted or top-dose-only effect, or another doubt; inactive = no such curve, though single readings can be large or run the other way. Where the call is inconclusive, the potency comes from a doubtful curve fit.

Assay: Primary qHTS for delayed death inhibitors of the malarial parasite plastid, 48 hour incubation
Conditions: P. falciparum luciferase growth in erythrocytes; series mostly up to 28.7 µM
In short: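 First compound was added to culture medium, then infected red cells at 0.1% parasitemia and 2% hematocrit (final). After incubation at 37 C under 5% CO2, luciferase detection reagent was dispensed and light output recorded.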
Potency is the fitted concentration of half-maximal effect; tags give direction and shape of the fitted curve.

Row | SMILES | Potency
1 | CC1CCC(NC(=O)CCS(=O)(=O)c2ccc3c(c2)oc(=O)n3C)CC1 (configuration not stated) | inactive
2 | COc1ccc2nc3oc(C(=O)NC4CCN(Cc5ccccc5)CC4)cc3cc2c1 | inconclusive: 0.657 µM [inhibitor, partial curve, poor fit]
3 | CCC(C)(C)C1CCC(=NNC(=S)Nc2ccccc2)CC1 (configuration not stated) | inconclusive: 16.5 µM [inhibitor, single point]
4 | O=C1CSC(c2cccnc2)N1C1CCCCC1 (configuration not stated) | inconclusive: 18.5 µM [inhibitor, single point]
5 | COc1ccc(Br)cc1CNC(=O)C1CCN(c2nnc(N3CCCC3=O)s2)CC1 | inconclusive: 16.5 µM [inhibitor, partial curve, poor fit]
6 | CC1CCCCN1C(=O)c1cc2nc(-c3ccccc3)cc(-c3ccccc3)n2n1 (configuration not stated) | active: 8.28 µM
7 | CCN(CC)CCn1c2c(c(SCC(=O)Nc3nccs3)nc1=O)CCCC2 | inconclusive: 18.5 µM [inhibitor, single point]
8 | OC(COc1ccc2cc(Br)ccc2c1)CN1CCN(c2ccccn2)CC1 (configuration not stated) | inconclusive: 10.4 µM [inhibitor, single point]
9 | Cc1cc(C)nc(N2CCCC(C(=O)NCc3cccs3)C2)n1 (configuration not stated) | inactive
10 | Cc1ccccc1NC(=O)c1sc(NC(=O)C2CC2)nc1C | inconclusive: 18.5 µM [inhibitor, single point]
11 | COc1ccc(/C(C)=N/NC(=O)c2cccc(S(=O)(=O)N3CCCC3)c2)c(O)c1 | inconclusive: 18.5 µM [inhibitor, single point]
12 | COc1ccccc1N1CCN(C(=O)c2cccc3c(=O)c(C)c(-c4ccccc4)oc23)CC1 | inconclusive: 5.86 µM [inhibitor, partial curve]
13 | COc1ccccc1N1C(=O)Cc2ccccc2C1=O | inconclusive: 0.0928 µM [inhibitor, full curve]
14 | Cc1cccc(NC(=O)C2c3ccccc3Oc3ccccc32)n1 | inconclusive: 11.7 µM [inhibitor, partial curve, poor fit]
15 | CCN1C(=O)C(O)(CC(=O)c2ccc(-n3cccc3)cc2)c2ccccc21 (configuration not stated) | inconclusive: 18.5 µM [inhibitor, single point]
16 | Cc1nc(SCC(=O)NCC2CCCO2)c2c3c(sc2n1)CCCC3 (configuration not stated) | inactive
17 | O=C(Nc1nnc(C2CC2)s1)C1CCCO1 (configuration not stated) | inactive
18 | CN(C)CCCNc1cc(C(C)(C)C)nc2c(-c3ccc(Cl)cc3)cnn12 | inconclusive: 8.28 µM [inhibitor, partial curve, poor fit]
19 | CCOc1ccc(OCC)c(NC(=O)C2COc3ccccc3O2)c1 (configuration not stated) | inconclusive: 10.4 µM [inhibitor, partial curve]
20 | CC(C)(C=O)C1=CC(=O)c2ccccc2C1=O | inconclusive: 10.4 µM [inhibitor, single point]
21 | CCOC(=O)N1CCC(NC(=O)C2CCN(c3nc(-c4ccc(OC)cc4)no3)CC2)CC1 | inconclusive: 4.15 µM [inhibitor, single point]
22 | COCCn1c(N)c(N(Cc2ccccc2)C(=O)c2ccc(-c3ccc(Cl)cc3)o2)c(=O)[nH]c1=O | inconclusive: 6.57 µM [inhibitor, partial curve, poor fit]
23 | CCOC(=O)c1c(C)[nH]c(C(=O)CSc2nc(C)cc(C)n2)c1C | inconclusive: 18.5 µM [inhibitor, single point]

Row | SMILES | Potency
24 | Cn1cc(C(=O)N/N=C/c2ccc(Br)c([N+](=O)[O-])c2)c2ccccc21 | inconclusive: 9.28 µM [inhibitor, single point]
25 | OC(CSc1ccccc1Cl)CN1CCN(c2ccc(F)cc2)CC1 (configuration not stated) | inconclusive: 10.4 µM [inhibitor, single point]
26 | O=C(/C=C/c1ccc(F)cc1)c1ccccc1Br | inactive
27 | O=C(c1ccc(-c2cccc(Cl)c2)o1)N1CCN(c2ccc([N+](=O)[O-])cc2)CC1 | inactive
28 | Cn1c(=O)[nH]c(=O)c2c1nc(Br)n2Cc1ccccc1F | inconclusive: 18.5 µM [inhibitor, single point]
29 | CCOc1ccc(-c2nc(N)ncc2-c2ccc(OC)cc2)c(O)c1 | inconclusive: 18.5 µM [inhibitor, single point]
30 | COC(=O)CNC(=O)c1ccc(F)cc1 | inactive
31 | Cc1ccc(C(C)C)c(OCC(=O)N2CCN(c3ncccn3)CC2)c1 | inconclusive: 18.5 µM [inhibitor, single point]
32 | COc1cc(NC(=O)c2cccc3c2C(=O)N(C2CCCCC2)C3)cc(OC)c1OC | active: 11.7 µM
33 | Nn1c(SCC(=O)NC2CCCc3ccccc32)nnc1-c1cccs1 (configuration not stated) | inconclusive: 11.7 µM [inhibitor, single point]
34 | Cc1ccc(Cc2nnc(SCC(=O)Nc3ccccc3)[nH]c2=O)cc1 | inconclusive: 11.7 µM [inhibitor, partial curve, poor fit]
35 | CCCC(C(=O)Nc1ccncc1)c1ccccc1 (configuration not stated) | inconclusive: 5.86 µM [inhibitor, partial curve]
36 | Cc1sc2ncnc(NCC(c3ccco3)N(C)C)c2c1C (configuration not stated) | inconclusive: 18.5 µM [inhibitor, single point]
37 | COC(=O)Cc1ccc(O)c(N)c1 | inconclusive: 13.1 µM [inhibitor, partial curve]
38 | COc1ccc(CCNc2nc(N3CCCCC3)nc(N3CCCCC3)n2)cc1OC | active: 13.1 µM
39 | CC(OC(=O)CCCCCN=C1NS(=O)(=O)c2ccccc21)C(=O)Nc1cc(Cl)cc(Cl)c1 (configuration not stated) | inactive
40 | CCn1c(C)c(P(c2ccccc2)c2ccccc2)[n+]2ccccc12 | active: 1.47 µM
41 | CCN(CC)c1ccc(NC(=O)c2nc3nc(C)cc(C(F)F)n3n2)cc1 | inconclusive: 5.22 µM [inhibitor, partial curve, poor fit]
42 | C=CCNCCCCOc1ccc(OCc2ccccc2)cc1 | inactive
43 | CCCCOc1c(Cl)cc(C(=O)N2CCN(CC(=O)N3CCCC3)CC2)cc1OCC | active: 11.7 µM
44 | Cc1ccc(/C=C/C(=O)NCc2ccc(S(N)(=O)=O)cc2)o1 | inactive
45 | CC(C)(C)c1ccc(-c2nnc3sc(-c4ccncc4)nn23)cc1 | inconclusive: 10.4 µM [inhibitor, single point]
46 | CC1CCCCN1S(=O)(=O)c1cccc(S(=O)(=O)N2CCOCC2)c1 (configuration not stated) | inconclusive: 0.828 µM [inhibitor, full curve]

Row | SMILES | Potency
47 | COc1ccc(Cl)cc1NC(=O)CN(C)C(=O)c1ccc(OCc2ccccc2)c(OC)c1 | inconclusive: 13.1 µM [inhibitor, single point]
48 | COc1cc(/C=C/C(=O)Nc2ccc3nc4n(c(=O)c3c2)CCCC4)cc(OC)c1OC | inconclusive: 8.28 µM [inhibitor, partial curve, poor fit]
49 | N#Cc1sc2nc(C3CC3)cc(-c3ccc(Cl)cc3)c2c1N | inconclusive: 18.5 µM [inhibitor, single point]
50 | CCOC(=O)c1c(C)[nH]c(C)c1C(=O)COC(=O)c1cc2ccccc2cc1OC | inconclusive: 18.5 µM [inhibitor, single point]
51 | CN(C)CCCN(C(=O)c1ccc(S(=O)(=O)N2CCCCCC2)cc1)c1nc2ccc(F)cc2s1 | inconclusive: 18.5 µM [inhibitor, single point]
52 | O=S(=O)(c1ccc(-c2csc(-c3cccnc3)n2)cc1)N1CCCCC1 | inconclusive: 14.7 µM [inhibitor, partial curve, poor fit]
53 | CC(C)(C)c1cc[n+](/C(C(=S)Nc2ccccc2F)=C(/[O-])c2ccc3c(c2)OCCO3)cc1 | inconclusive: 13.1 µM [inhibitor, single point]
54 | C=CCOC(=O)C1=C(C)NC(SCC)=C(C#N)C1c1ccc(Cl)cc1 (configuration not stated) | inconclusive: 13.1 µM [inhibitor, partial curve, poor fit]
55 | OC(c1ccccc1)(c1ccccc1)C1CN2CCC1CC2 (configuration not stated) | inconclusive: 10.4 µM [inhibitor, single point] and inconclusive: 7.57 µM [inhibitor, partial curve]
56 | S=C1NC2(CCCCC2)NC12CCCCC2 | inconclusive: 14.7 µM [inhibitor, single point]
57 | CCCCN(C)CCNC(=O)CCn1nc(-c2ccc(Cl)cc2)ccc1=O | inconclusive: 16.5 µM [inhibitor, partial curve, poor fit]
58 | CNC(=O)/C(C#N)=C/c1ccc(-c2nc3ccccc3s2)o1 | inactive
59 | Cc1cccc(-[n+]2c(C)cc(C)c3c(=O)[nH]c(=O)[nH]c32)c1 | inactive
60 | Cn1c2ccccc2n2c(=O)c(Cl)c(-c3ccccc3)c(C#N)c12 | inactive
61 | CCc1ccc(CN(C)C(=O)c2cccc(S(=O)(=O)Nc3ccccc3OC)c2)cc1 | active: 10.4 µM
62 | OC(CN1C2=NCCCN2c2ccccc21)c1ccc2c(c1)OCO2 (configuration not stated) | inconclusive: 8.28 µM [inhibitor, single point]
63 | CN(C(=O)Nc1ccccc1)C1CCS(=O)(=O)C1 (configuration not stated) | inactive
64 | FC1(F)C(F)(F)C(F)(F)C2(F)C(F)(F)C(F)(F)C(F)(F)C(F)(F)C2(F)C1(F)F (configuration not stated) | inactive
65 | Cc1[nH][nH]c(=O)c1C(c1c(C)[nH][nH]c1=O)c1cn(Cc2ccc(F)cc2)c2ccccc12 | inconclusive: 16.5 µM [inhibitor, single point]
66 | Cc1cc(SCC(=O)N(CC(C)C)c2c(N)n(CC(C)C)c(=O)[nH]c2=O)nc2ccccc12 | inconclusive: 14.7 µM [inhibitor, single point]
67 | O=C(CCCN1C(=O)/C(=C/c2cccs2)SC1=S)Nc1ccc(O)cc1 | inconclusive: 9.28 µM [inhibitor, single point]
